Experimental data: the supplement of paper PMC7826260
Some of the results follow. Cleavage of a single-stranded DNA pool by Rep nickase domains was read by sequencing at 3 µM enzyme and 37 °C for 1 h; the strands have 90 letters, of which the middle is given. Numbers give uncut DNA relative to the enzyme-free pool, as log2; strong cutting gives strongly negative numbers. There is no active / inactive call. Because reads are shares of a total, they shift together; values above 0 arise when much of the pool is cut.

System: T1, Rep nickase domain of chickpea chlorotic dwarf virus
T1 sequence (residues 1-124, tag not shown): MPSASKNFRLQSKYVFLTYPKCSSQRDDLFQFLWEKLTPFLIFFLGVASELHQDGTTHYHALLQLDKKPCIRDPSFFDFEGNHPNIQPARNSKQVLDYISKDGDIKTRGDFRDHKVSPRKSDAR
Assay: uncleaved DNA left, log2 of reads against the no-enzyme library (log2 ratio); higher = less cleavage (more negative = more Rep cleavage of the k-mer); sequences stand for … in CTCGTCCG…ACCGGAGA
Procedure: (§1)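 A pool of 90-nt single-stranded DNAs with seven random bases just before the constant AC of the nick site (name = the seven bases) was cut by 3 µM recombinant His6-SUMO-tagged Rep nickase domain (300 nM DNA, 50 mM HEPES pH 8.0, 50 mM NaCl, 1 mM MnCl2, 1 h, 37 °C, three replicates). Uncut DNA was amplified and sequenced.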

Row | Sequence | uncleaved DNA left (log2)
1 | AGGACCT | 1.12
2 | GAAGGAG | 0.967
3 | AAACGAC | -0.101
4 | GCGCAAG | 0.26
5 | GGTAAAG | 0.627
6 | ACGTATC | 0.0562
7 | GACTACC | -0.548
8 | GTCTGTA | 0.776
9 | TGCTTCC | -0.0218
10 | AGGGAGG | 0.545
11 | CTGTATT | -2.71
12 | TCAACCA | -2.31
13 | TTGTAAG | -0.734
14 | ACGAACG | -0.188
15 | GCCCAAA | 0.613
16 | TGTGCAT | 0.895
17 | AATGCAG | -0.229
18 | ATCACGG | 1.34
19 | CCATACA | -2.29
20 | TCTAGCG | 0.555

Row | Sequence | uncleaved DNA left (log2)
21 | ATCTAAA | -0.101
22 | ATCCCCC | -0.115
23 | GTAGGAG | 0.375
24 | CCCCAGA | -0.216
25 | ACACCGG | -0.0252
26 | CCTTCGA | -0.693
27 | CTTTTGC | -0.681
28 | GTACTGC | 0.314
29 | ACGCCGG | -0.0192
30 | CTGATAG | -0.429
31 | CACTGCC | -0.33
32 | GTCTTGT | 0.661
33 | TGACGCA | 0.259
34 | GGTTAAA | 1.08
35 | CAACAGG | 0.196
36 | CTCTGTT | -2.57
37 | GTTTGCC | 0.241
38 | TGTTCGA | -0.507
39 | TTGTGAT | 0.73
40 | GATGGAG | -0.364

System: T2, Rep nickase domain of faba bean necrotic yellows virus
T2 sequence (residues 1-98, tag not shown): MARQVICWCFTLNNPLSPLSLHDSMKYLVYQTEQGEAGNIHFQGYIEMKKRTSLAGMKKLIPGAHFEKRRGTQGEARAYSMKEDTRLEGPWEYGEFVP
Assay: as above
Procedure: as §1

Row | Sequence | uncleaved DNA left (log2)
41 | AGGACCT | -0.0964
42 | GAAGGAG | -0.00849
43 | AAACGAC | -0.0168
44 | GCGCAAG | 0.143
45 | GGTAAAG | 0.0632
46 | ACGTATC | 0.0756
47 | GACTACC | -0.0909
48 | GTCTGTA | 0.00253
49 | TGCTTCC | -0.00308
50 | AGGGAGG | 0.0566
51 | CTGTATT | -2.8
52 | TCAACCA | -0.101
53 | TTGTAAG | -0.0805
54 | ACGAACG | -0.0323
55 | GCCCAAA | -0.0969
56 | TGTGCAT | -0.0228
57 | AATGCAG | 0.0271
58 | ATCACGG | 0.0378
59 | CCATACA | -0.041
60 | TCTAGCG | 0.0764

Row | Sequence | uncleaved DNA left (log2)
61 | ATCTAAA | -0.074
62 | ATCCCCC | -0.181
63 | GTAGGAG | 0.153
64 | CCCCAGA | 0.142
65 | ACACCGG | 0.0183
66 | CCTTCGA | -0.092
67 | CTTTTGC | -0.107
68 | GTACTGC | -0.0491
69 | ACGCCGG | 0.0505
70 | CTGATAG | 0.0304
71 | CACTGCC | -0.0779
72 | GTCTTGT | -0.032
73 | TGACGCA | 0.0769
74 | GGTTAAA | 0.0526
75 | CAACAGG | -0.112
76 | CTCTGTT | -0.0788
77 | GTTTGCC | -0.082
78 | TGTTCGA | 0.0893
79 | TTGTGAT | 0.0818
80 | GATGGAG | 0.0592

System: T3, Rep nickase domain of maize striate mosaic virus
T3 sequence (residues 1-117, tag not shown): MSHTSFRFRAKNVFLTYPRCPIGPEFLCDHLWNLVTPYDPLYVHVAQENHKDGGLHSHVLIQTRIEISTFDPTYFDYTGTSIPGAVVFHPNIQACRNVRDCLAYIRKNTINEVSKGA
Assay: as above
Procedure: as §1

Row | Sequence | uncleaved DNA left (log2)
81 | AGGACCT | 1.57
82 | GAAGGAG | 0.423
83 | AAACGAC | -0.549
84 | GCGCAAG | -0.485
85 | GGTAAAG | -0.0324
86 | ACGTATC | -0.499
87 | GACTACC | 0.728
88 | GTCTGTA | 1.51
89 | TGCTTCC | 0.221
90 | AGGGAGG | 0.513
91 | CTGTATT | -0.471
92 | TCAACCA | -0.342
93 | TTGTAAG | -1.34
94 | ACGAACG | -0.917
95 | GCCCAAA | 0.353
96 | TGTGCAT | 0.916
97 | AATGCAG | -1.17
98 | ATCACGG | 1.27
99 | CCATACA | -1.05
100 | TCTAGCG | -0.702

Row | Sequence | uncleaved DNA left (log2)
101 | ATCTAAA | -0.573
102 | ATCCCCC | -0.276
103 | GTAGGAG | -0.328
104 | CCCCAGA | -0.768
105 | ACACCGG | -0.49
106 | CCTTCGA | -1.21
107 | CTTTTGC | -1.35
108 | GTACTGC | 0.377
109 | ACGCCGG | -0.568
110 | CTGATAG | -1.03
111 | CACTGCC | -0.469
112 | GTCTTGT | 1.71
113 | TGACGCA | 1.18
114 | GGTTAAA | 1.68
115 | CAACAGG | -0.444
116 | CTCTGTT | -0.633
117 | GTTTGCC | -0.373
118 | TGTTCGA | -0.908
119 | TTGTGAT | 0.867
120 | GATGGAG | -0.698
